ChEMBL document CHEMBL4888484, “Replenishing the malaria drug discovery pipeline: Screening and hit evaluation of the MMV Hit Generation Library 1 (HGL1) against asexual blood stage Plasmodium falciparum ,using a nano luciferase reporter read-out” (2022)
Out of some 150,000 compounds screened, about 540 (0.36%) showed an effect of 50% or more. This is one part of the list.

Test system: Plasmodium falciparum
Test: Primary screen in NF54 nanoGlo assay, in single point, at 2uM, 72h; a lower Z score goes with more inhibition
Assay type: functional, Erythrocyte
Conditions: timepoint 72 hour

Structure (SMILES) | % Inhibition [%] | Z score
O=C1CN(CC(=O)Nc2nc(-c3ccccc3)cs2)CCN1 | -17 | 1.82
Cc1cc(C)n(C(=O)C2C(C)ON(c3ccccc3)C2c2ccccc2)n1 (stereo not given) | -1 | 0.16
COc1ccccc1[C@H]1CCN(S(=O)(=O)c2ccc3c(c2)CCO3)C1 | -5 | 0.8
Fc1ccc(Oc2ncnc3oc(-c4ccccc4)cc23)c(Cl)c1 | -11 | 1.38
c1ccc2c(c1)CCOC21CCN(Cc2ncc[nH]2)CC1 | -3 | 0.51
Cc1cnc(CN(C[C@H]2CCCO2)C2CCCC2)cn1 | -8 | 0.7
O=S(=O)(NCCc1c[nH]c2ncccc12)c1cccc(Br)c1 | -15 | 1.77
CC1CCC(C)N1C1CCCN(S(=O)(=O)c2ccc(Cl)c(C(F)(F)F)c2)C1 (stereo not given) | -4 | 0.74
CCCc1ncncc1C(=O)NC(C)(C)COCC | -8 | 1.28
O=C1CN(c2ccc(C(F)(F)F)cn2)C2CCCCC2N1 (stereo not given) | 15 | -2.06
CC(C)n1ccc(C(=O)N2CCOC[C@@H]2C)n1 | -14 | 2.66
CCCOc1ccc(N(CC(F)F)S(C)(=O)=O)cc1 | -14 | 1.9
Cc1ccc(C(=O)c2ccc(NC(=O)c3ncn(-c4ccc(Cl)cc4)n3)cc2)cc1 | 38 | -4.91
CC(=O)c1ccc(F)c(-c2ccc(C(=O)N3CC[C@@H](O)C3)cc2)c1 | -23 | 2.68
Cc1ccc2[nH]c(Nc3ccc4c(c3)OCO4)nc2c1 | -5 | 0.66
O=C(CN1CCO[C@H](c2cccs2)C1)Nc1cccnn1 | -5 | 0.86
CC[C@]1(O)CCOC2(CCN(Cc3cnn(C)c3)CC2)C1 | -17 | 2.77
C[C@H]1Cc2ccccc2N1CCNC(=O)c1[nH]nc2c1CCCC2 | 2 | -0.27
Cc1c2c(=O)n(-c3nc4ccccc4s3)n(CC(=O)Nc3ccc(F)cc3)c2cc(=O)n1CCCN1CCOCC1 | -30 | 3.47
CCOc1cccc2c1OCC(C(=O)N1CCN(C)C(=O)C1)=C2 | -12 | 2.34
Fc1cccc(F)c1-c1nc(Cn2ccnn2)co1 | -1 | 0.12
CCOc1ccc(N2CCC[C@H](CNC(=O)c3ccccc3)C2)nn1 | 1 | -0.14

Structure (SMILES) | % Inhibition [%] | Z score
O=C(O)c1nccnc1C(=O)Nc1cccc2c1ccn2Cc1ccccc1 | -24 | 2.77
C[C@@H]1C[C@@H](NC(=O)NCC2CCC(C#N)CC2)c2ccccc2O1 (stereo not given in full) | 3 | -0.5
CN(C(=O)c1cccc(N2CCCC2=O)c1)c1ccc2ccccc2n1 | 1 | -0.12
COCOc1ccc2ccccc2c1-c1nc(C2OCCO2)cs1 | -8 | 0.93
Nc1cc(N2CC[C@H](F)C2)c(Cl)cn1 | 6 | -1.21
O=C(Cn1cnnn1)N1CC[C@@](F)(c2cccc(C(F)(F)F)c2)C1 | -8 | 0.85
Cc1cc(-c2nc(-c3ccc(F)cc3)no2)c(C)n1CC(=O)Nc1ccc(F)c(F)c1 | -4 | 0.72
COc1ccc(CN2C(=O)O[C@H]3CN(c4nc(C)cc(C)n4)C[C@H]32)cc1OC | 0 | 0.03
CCn1ncnc1[C@H](C)NC(=O)Cn1cc(C(F)(F)F)ccc1=O | -2 | 0.38
CNc1ncnc2cc(C(=O)NC3CCC(OC(F)F)CC3)ccc12 (stereo not given) | -8 | 1.07
CCCN(CC(F)F)C(=O)[C@@H]1COc2ccc(Br)cc21 | -7 | 0.6
CN(C)c1ccnc(NC(=O)NC[C@H]2OCCN(C)[C@@H]2c2cnn(C)c2)n1 | 2 | -0.35
COc1ccccc1N1CCN(C(=O)[C@H]2CCc3[nH]cnc3C2)CC1 | -13 | 2.24
Cc1nc(C)c(C(=O)NC[C@H]2CN(Cc3ccccc3)C(=O)CO2)s1 | -9 | 1.2
CC(C)=CCN1CCC([C@]2(Cc3ccccc3Cl)NC(=O)N(CC3CC3)C2=O)CC1 | 0 | -0.05
Cc1nc(CC(=O)N(CC(F)(F)F)c2cccc(Cl)c2)cs1 | -9 | 1.14
Cc1ccc2[nH]c(CCNC(=O)C[C@H](C)N3CCOCC3)nc2c1 | 1 | -0.22
CCOC1CC(N(C)S(=O)(=O)c2cc(C(N)=O)n(C)c2)C1(C)C (stereo not given) | 2 | -0.17
CCNC(=O)N(Cc1c(C)nn(-c2ccccc2)c1Oc1cccc(OC)c1)C1CC1 | 6 | -0.78
CCN(C(=O)[C@@H](N)C(C)C)c1ccccc1 | -12 | 1.6
C#Cc1cccc(C(=O)N2CCC(N3CCC(C(=O)NC[C@H]4CCCO4)CC3)CC2)c1 | -10 | 1.53
COc1cccc(-c2nc(-c3ccc(S(=O)(=O)N4CCCC4)cc3)no2)c1OC | -8 | 1.27

Structure (SMILES) | % Inhibition [%] | Z score
CN(C)C(=O)[C@]12CCS(=O)(=O)N(C)[C@@H]1CCN(C(=O)NCCc1ccccc1)C2 | -12 | 1.76
Fc1cccc(Cl)c1CN1CC(c2nc(-c3ncccn3)no2)C1 | 3 | -0.48
COCCn1cnc2oc(C)c(C(=O)Nc3cccnc3)c2c1=O | -5 | 0.86
CCN1CCc2ncnc(N3CCc4sccc4[C@@H]3C)c2C1 | 3 | -0.44
Cn1cc(C(=O)N2CCC(c3nc4ccccc4s3)CC2)c2ccccc21 | -30 | 3.48
O=C(c1cc[nH]c(=O)c1)N1CCCCC[C@@H]1Cc1ccccc1Cl | -5 | 0.82
C[C@@H]1CN(C(=O)OC(C)(C)C)C[C@H](C)N1Cc1ncccn1 | -11 | 1.15
O=C(Cn1cnnn1)Nc1ccc(F)cc1Nc1ccccc1F | 11 | -1.44
COc1ccccc1Cn1cnc2cc(C(=O)N3CCNC(=O)C3)ccc21 | -9 | 1.02
O=C(C[C@H](c1c[nH]c2ccc(Cl)cc12)C1CCCCC1)N1CCOCC1 | -11 | 1.43
CCCCS(=O)(=O)N(C)Cc1cccnc1OCC | 34 | -3.86
Cc1nc(N(C)C)nc(-c2ccc(F)c3cccnc23)c1C | 5 | -0.76
CC(C)c1cc(CNC(=O)c2cccc(=O)[nH]2)no1 | -4 | 0.77
Cc1ccccc1OC[C@H](C)n1cnc2nccnc2c1=O | -3 | 0.43
Cc1nc2sccn2c1CN(C)S(=O)(=O)C1CC1 | -2 | 0.2
Cc1c(Cn2cnc3nccnc3c2=O)oc2ccccc12 | -12 | 1.41
O=C(c1cnsn1)N1CCOC2CCCCC21 (stereo not given) | -6 | 0.95
O=C1N(c2cccc(Cl)c2)c2ncccc2S(=O)(=O)N1Cc1ccccc1 | -4 | 0.5
CCn1nc(C)c(-c2csc(COC(C)C)n2)n1 | -1 | 0.18
CC(C)(C)C1CCC(CC(=O)Nc2nc(CS(C)(=O)=O)no2)CC1 (stereo not given) | -8 | 1.2
Cc1cccc(N2C(=O)[C@H]3[C@@H](C2=O)[C@]2(C(=O)Nc4c2ccc(C)c4C)N2CCC[C@@H]32)c1C | 6 | -0.58
Clc1ccc(-c2csc3ncnc(N4CCC[C@H](C5OCCO5)C4)c23)cc1 | -11 | 1.67

Structure (SMILES) | % Inhibition [%] | Z score
COc1ccc(NC(=O)c2cnc(O[C@H]3CCOC3)c(Cl)c2)cn1 | -16 | 3.03
Cc1noc(C)c1CN1CC[C@H](NC(=O)CCc2ccncc2)[C@@H](O)C1 | 8 | -0.7
Cc1cc(NC(=O)Nc2ccccc2CC(=O)OC(C)(C)C)[nH]n1 | -1 | 0.09
COCCC(=O)N(C)c1ccc(Cl)cn1 | 14 | -1.53
O=C(Cc1ccccc1Cl)N1C2CCC1CC(n1ccnc1)C2 (stereo not given) | -21 | 2.66
Cc1cc(C)cc(C(O)CN2CCCC(C3(C)NC(=O)NC3=O)C2)c1 (stereo not given) | -1 | 0.14
COCCc1ncc(CN[C@H]2CCCN(CCCc3ccccc3)C2)cn1 | -21 | 3.1
Cc1cccn2c(CC(=O)Nc3cnn4c3NCCC4)cnc12 | -9 | 0.82
CCCN(CCC(=O)NCCN1CCOCC1)c1nc(-c2cccc(Br)c2)nc2ccccc12 | -9 | 1.2
Cc1nc(-c2csc(CN(C)C)n2)n(CC2CCCCC2)n1 | 0 | 0
CCNC(=O)NC1(CC2CC2)CCN(S(=O)(=O)c2cc(OC)ccc2OC)CC1 | -8 | 1.45
COc1cc(NC(=O)N[C@H]2CCCc3c(F)cccc32)n(C)n1 | -4 | 0.72
Cc1nonc1OCCN[C@@H](C)C(=O)Nc1nccs1 | -8 | 0.99
CCOC(=O)CC1(NC(=O)N2CC[C@H](c3nc4cccnc4n3C)C2)CCCCC1 | -5 | 0.65
CCCCN=C(NCc1nnc2n1CCCCC2)N1CCCC1 | 8 | -1.07
Cc1n[nH]c(C)c1CCNc1nccc(C2CCCC2)n1 | 2 | -0.41
Cn1cc(NC(=O)NCC[C@@H]2CCCC[C@@H]2O)c(C(F)(F)F)n1 | -3 | 0.65
CCn1c(=O)c(-c2nc(-c3ccncc3)no2)c(O)c2ccccc21 | 0 | -0.01
Cc1oc(C(C)C)nc1C(=O)NC[C@@H]1OCCc2sc(F)cc21 | -9 | 1.64
